We go through 25 molecules from the supplement of paper PMC4604168 (melanoma cell lines).

Some of the results follow. Most values come without repeats; read them as rough.

What all share (assay): cell count relative to DMSO control; melanoma cells; higher = more viable cells
Holding throughout (conditions): library dose: low library concentration; 72 h

In assay [1] the test system is WM115.
The test system of assay [2] is WM1716.
Assay [3] concerns WM1745.
The test system of assay [4] is WM3526.
Assay [5] concerns WM3619.
For assay [6], the system named is WM451Lu.
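Further: cell number obtained by counting DAPI-stained nuclei in high-throughput microscope images with image analysis software, screen run in 1,536-well plates.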

In the case of `O=c1[nH]nc(Sc2ncc([N+](=O)[O-])s2)n1-c1ccc2c(c1)OCCO2` + C[C@]12O[C@H](C[C@]1(O)CO)n1c3ccccc3c3c4c(c5c6ccccc6n2c5c31)CNC4=O [Lestaurtinib] (first compound 0.2 µM, partner dose 0.004 µM), the cell count in assay [1] is 97.4%; in assay [2] it was 98.7%; in assay [3], 90.5%; in assay [4], 91.7%; in assay [5] it was 95.2%; in assay [6], 105%.
As to `CCN(CC)CCCCNc1ncc2cc(-c3cc(OC)cc(OC)c3)c(NC(=O)NC(C)(C)C)nc2n1` + Cc1cc(SCc2sc(-c3ccc(C(F)(F)F)c(F)c3)nc2C)ccc1OCC(=O)O [GW0742] (first compound 0.1 µM, partner dose 2 µM), the cell count in assay [1] is 89.5%; in assay [2] it was 94.9%; in assay [3], 85.2%; in assay [4], 99.4%; in assay [5], 114%; in assay [6], 96.7%.
`O=C(Nc1cccc(Cl)c1)Nc1ncc(CCNc2ncnc3ccsc23)s1` + O=C(Oc1ccc([N+](=O)[O-])cc1)N1CCC(C(O)(c2ccc3c(c2)OCO3)c2ccc3c(c2)OCO3)CC1 [JZL184] (first compound 0.0008 µM, partner dose 1 µM): the cell count in assay [1] is 51.3%; in assay [2], 94.2%; in assay [3], 89.9%; in assay [4] it was 86.8%; in assay [5], 93.8%; in assay [6], 98.1%.
Consider `CCCCCCCCCCCCCCCCCCOP(=O)([O-])OC1CC[N+](C)(C)CC1` [Perifosine] + C/C(O)=C(\C#N)C(=O)Nc1cc(Br)ccc1Br [LFM-A13] (first compound 0.4 µM, partner dose 2 µM), for which the cell count was found to be 103% in assay [1]; 106% in assay [2]; 94.5% in assay [3]; 79.9% in assay [4]; 112% in assay [5]; 89.1% in assay [6].
For the molecule `CC1(C)CCC(c2ccc(Cl)cc2)=C(CN2CCN(c3ccc(C(=O)NS(=O)(=O)c4ccc(N[C@H](CCN5CCOCC5)CSc5ccccc5)c(S(=O)(=O)C(F)(F)F)c4)cc3)CC2)C1` + C/C(O)=C(\C#N)C(=O)Nc1cc(Br)ccc1Br [LFM-A13] (first compound 0.4 µM, partner dose 2 µM), the cell count in assay [1] stood at 72%; in assay [2], 71.4%; in assay [3], 8.39%; in assay [4], 71.9%; in assay [5], 86.1%; in assay [6] it was 69.3%.
In the case of `O=C(Nc1ccccc1)c1cc([N+](=O)[O-])ccc1Cl` + C/C(O)=C(\C#N)C(=O)Nc1cc(Br)ccc1Br [LFM-A13] (first compound 2 µM, partner dose 2 µM), the cell count is 96.9% in assay [1]; 118% in assay [2]; 85.6% in assay [3]; 98.4% in assay [4]; 119% in assay [5]; 98.3% in assay [6].
Take `CCCCCCCCc1ccc(CCC(N)(CO)CO)cc1` [fingolimod] + C/C(O)=C(\C#N)C(=O)Nc1cc(Br)ccc1Br [LFM-A13] (first compound 2 µM, partner dose 2 µM): the cell count stood at 86.1% in assay [1]; 66.3% in assay [2]; 87.7% in assay [3]; 82.9% in assay [4]; 89.8% in assay [5]; 69.6% in assay [6].
For the molecule `Nc1nc(F)nc2c1ncn2[C@@H]1O[C@H](CO)[C@@H](O)[C@@H]1O` [fludarabine] + O=C(Oc1ccc([N+](=O)[O-])cc1)N1CCC(C(O)(c2ccc3c(c2)OCO3)c2ccc3c(c2)OCO3)CC1 [JZL184] (first compound 0.2 µM, partner dose 1 µM), the cell count came out at 101% in assay [1]; 104% in assay [2]; 100% in assay [3]; 28.1% in assay [4]; 93.9% in assay [5]; 41% in assay [6].
In the case of `NC1(c2ccc(-c3nc4ccn5c(=O)[nH]nc5c4cc3-c3ccccc3)cc2)CCC1` + C[As](C)SC[C@H](NC(=O)CC[C@H](N)C(=O)O)C(=O)NCC(=O)O [Darinaparsin] (first compound 0.4 µM, partner dose 0.4 µM), the cell count in assay [1] turned out to be 92%; in assay [2], 85.6%; in assay [3], 78.4%; in assay [4] it was 76.7%; in assay [5], 100%; in assay [6], 83.9%.
For `Cn1cnc2c(F)c(Nc3ccc(Br)cc3Cl)c(C(=O)NOCCO)cc21` [selumetinib] + N.N.[Cl][Pt][Cl] [cisplatin] (first compound 0.015 µM, partner dose 1.6 µM), the cell count was 88.7% in assay [1]; 110% in assay [2]; 88.4% in assay [3]; 88.6% in assay [4]; 86.6% in assay [5]; 87.6% in assay [6].
`Nc1ncn([C@H]2C[C@H](O)[C@@H](CO)O2)c(=O)n1` [decitabine] + O=C(Oc1ccc([N+](=O)[O-])cc1)N1CCC(C(O)(c2ccc3c(c2)OCO3)c2ccc3c(c2)OCO3)CC1 [JZL184] (first compound 0.1 µM, partner dose 1 µM): the cell count in assay [1] is 78.1%; in assay [2], 82.2%; in assay [3], 113%; in assay [4], 86%; in assay [5], 96.5%; in assay [6], 97.4%.
On to `CC(=O)c1c(C)c2cnc(Nc3ccc(N4CCNCC4)cn3)nc2n(C2CCCC2)c1=O` [palbociclib] + Cc1cc(SCc2sc(-c3ccc(C(F)(F)F)c(F)c3)nc2C)ccc1OCC(=O)O [GW0742] (first compound 0.04 µM, partner dose 2 µM), for which the cell count in assay [1] is 67.9%; in assay [2], 65.9%; in assay [3], 69.3%; in assay [4] it was 63.6%; in assay [5], 74.3%; in assay [6], 69.5%.
Regarding `CCN(CC)CCCCNc1ncc2cc(-c3cc(OC)cc(OC)c3)c(NC(=O)NC(C)(C)C)nc2n1` + C/C(O)=C(\C#N)C(=O)Nc1cc(Br)ccc1Br [LFM-A13] (first compound 0.1 µM, partner dose 2 µM), the cell count in assay [1] came to 94.8%; in assay [2], 98.9%; in assay [3] it was 86.1%; in assay [4], 94%; in assay [5], 95%; in assay [6], 106%.
Regarding `CS(=O)(=O)CCNCc1ccc(-c2ccc3ncnc(Nc4ccc(OCc5cccc(F)c5)c(Cl)c4)c3c2)o1` [lapatinib] + C[As](C)SC[C@H](NC(=O)CC[C@H](N)C(=O)O)C(=O)NCC(=O)O [Darinaparsin] (first compound 0.8 µM, partner dose 0.4 µM), the cell count in assay [1] is 103%; in assay [2], 116%; in assay [3], 102%; in assay [4], 115%; in assay [5], 111%; in assay [6] it was 90.6%.
As to `Cn1sc(=O)n(Cc2ccccc2)c1=O` + C[As](C)SC[C@H](NC(=O)CC[C@H](N)C(=O)O)C(=O)NCC(=O)O [Darinaparsin] (first compound 0.4 µM, partner dose 0.4 µM), the cell count in assay [1] came to 112%; in assay [2], 102%; in assay [3], 93%; in assay [4] it was 115%; in assay [5] it was 84%; in assay [6], 93.5%.
As to `OCCn1cc(-c2cnc3nnn(Cc4ccc5ncccc5c4)c3n2)cn1` + Cc1cc(SCc2sc(-c3ccc(C(F)(F)F)c(F)c3)nc2C)ccc1OCC(=O)O [GW0742] (first compound 1 µM, partner dose 2 µM), the cell count was determined as 105% in assay [1]; 91.2% in assay [2]; 105% in assay [3]; 119% in assay [4]; 98.7% in assay [5]; 107% in assay [6].
For `CCCCCCCCCCCCCCCCCCOP(=O)([O-])OC1CC[N+](C)(C)CC1` [Perifosine] + Cn1cc(C2=C(c3cn(C4CCN(Cc5ccccn5)CC4)c4ccccc34)C(=O)NC2=O)c2ccccc21 [Enzastaurin] (first compound 0.4 µM, partner dose 0.8 µM), the cell count in assay [1] amounted to 109%; in assay [2] it was 92.6%; in assay [3], 110%; in assay [4] it was 105%; in assay [5], 93.4%; in assay [6], 121%.
For `COc1ccc2c(c1)CCC1C2CCC2(C)C(NCCCCCCN3C(=O)C=CC3=O)CCC12` (stereo not given) + C/C(O)=C(\C#N)C(=O)Nc1cc(Br)ccc1Br [LFM-A13] (first compound 0.4 µM, partner dose 2 µM), the cell count stood at 98% in assay [1]; 82.2% in assay [2]; 86.5% in assay [3]; 86.6% in assay [4]; 86.6% in assay [5]; 102% in assay [6].
As for `CN(c1ncccc1CNc1nc(Nc2ccc3c(c2)CC(=O)N3)ncc1C(F)(F)F)S(C)(=O)=O` + O=C(Oc1ccc([N+](=O)[O-])cc1)N1CCC(C(O)(c2ccc3c(c2)OCO3)c2ccc3c(c2)OCO3)CC1 [JZL184] (first compound 0.08 µM, partner dose 1 µM), the cell count in assay [1] was 81.6%; in assay [2] it was 77.4%; in assay [3], 85%; in assay [4], 75.9%; in assay [5], 97.3%; in assay [6], 30.8%.
On to `Cn1nnc2c(C(N)=O)ncn2c1=O` [temozolomide] + Cc1cc(SCc2sc(-c3ccc(C(F)(F)F)c(F)c3)nc2C)ccc1OCC(=O)O [GW0742] (first compound 2 µM, partner dose 2 µM), for which the cell count in assay [1] is 96.2%; in assay [2] it was 88%; in assay [3] it was 103%; in assay [4] it was 101%; in assay [5], 112%; in assay [6], 119%.
Turning to `CCN(CC)CCNC(=O)c1c(C)[nH]c(/C=C2\C(=O)Nc3ccc(F)cc32)c1C` [sunitinib] + C[As](C)SC[C@H](NC(=O)CC[C@H](N)C(=O)O)C(=O)NCC(=O)O [Darinaparsin] (first compound 0.4 µM, partner dose 0.4 µM), the cell count was 107% in assay [1]; 130% in assay [2]; 92.9% in assay [3]; 88.7% in assay [4]; 102% in assay [5]; 93.7% in assay [6].
With `CS(=O)(=O)c1ccc(C(=O)Nc2ccc(Cl)c(-c3ccccn3)c2)c(Cl)c1` [vismodegib] + N.N.[Cl][Pt][Cl] [cisplatin] (first compound 1 µM, partner dose 1.6 µM), the cell count in assay [1] worked out at 109%; in assay [2], 106%; in assay [3], 98.1%; in assay [4], 87.2%; in assay [5] it was 97%; in assay [6] it was 122%.
Regarding `O=C(Nc1cccc(Cl)c1)Nc1ncc(CCNc2ncnc3ccsc23)s1` + Cc1cc(SCc2sc(-c3ccc(C(F)(F)F)c(F)c3)nc2C)ccc1OCC(=O)O [GW0742] (first compound 0.0008 µM, partner dose 2 µM), the cell count in assay [1] was 74%; in assay [2] it was 120%; in assay [3] it was 92.3%; in assay [4], 123%; in assay [5], 97.9%; in assay [6], 113%.
Consider `CC1(C)CCC(c2ccc(Cl)cc2)=C(CN2CCN(c3ccc(C(=O)NS(=O)(=O)c4ccc(N[C@H](CCN5CCOCC5)CSc5ccccc5)c(S(=O)(=O)C(F)(F)F)c4)cc3)CC2)C1` + C[C@]12O[C@H](C[C@]1(O)CO)n1c3ccccc3c3c4c(c5c6ccccc6n2c5c31)CNC4=O [Lestaurtinib] (first compound 0.4 µM, partner dose 0.004 µM), for which the cell count in assay [1] amounted to 90.4%; in assay [2], 104%; in assay [3], 14.7%; in assay [4], 102%; in assay [5] it was 92%; in assay [6], 96.3%.
Turning to `Cc1cc(SCc2sc(-c3ccc(C(F)(F)F)c(F)c3)nc2C)ccc1OCC(=O)O` + c1cc(-c2cnn3cc(-c4ccc(OCCN5CCCCC5)cc4)cnc23)ccn1 [Dorsomorphin] (first compound 2 µM, partner dose 0.4 µM), the cell count was 94.6% in assay [1]; 103% in assay [2]; 78.7% in assay [3]; 83.1% in assay [4]; 78.6% in assay [5]; 114% in assay [6].
